In patent US20160272622A1, “TETRAZOLINONE COMPOUND AND USE THEREOF” (SUMITOMO CHEMICAL COMPANY, LIMITED, priority 2013, published 2016) one finds mortality data, which are given here for 2 compounds.

This assay relates to diamondback moth (Plutella xylostella). The experiment in a line: whole plant or invertebrate. The following applies: in Brassica oleracea, 120 h.

Bounds are passed on as bounds.

The term mortality denotes the percentage killed. Low values mean more survivors, high ones fewer survivors. As to `Cc1cc(-c2nn(C)c(Cl)c2C)ccc1OCc1c(-n2nnn(C)c2=O)cnn1C(C)(C)C` [present compound 14, 1-(1-tert-butyl-5-[2-methyl-4-(5-chloro-1,4-dimethyl-1H-pyrazol-3-yl)-phenoxymethyl]-1H-pyrazol-4-yl)-4-methyl-1,4-dihydrotetrazol-5-one], the mortality at 500 ppm is no less than 80%.
The same measure for `COc1ccccc1-n1ccc(OCc2c(-n3nnn(C)c3=O)cnn2C(C)(C)C)n1` [present compound 12, 1-(1-tert-butyl-5-{[1-(2-methoxyphenyl)-1H-pyrazol-3-yl]oxymethyl}-1H-pyrazol-4-yl)-4-methyl-1,4-dihydrotetrazol-5-one]: no less than 80%.
